Measurements: PMC10094454
Results are given in words; binding and its absence hold for the method and conditions named. In cells and extracts the contact can be indirect. Some binding calls cover weakened binding; strength is not graded here. Sequences can lack the tags named with a protein.

The chains behind the UniProt entries cited, without tags or fusion partners. Where a name states a change or a piece, a line headed by the entry shows the natural chain unless it says otherwise.
UniProt Q64261: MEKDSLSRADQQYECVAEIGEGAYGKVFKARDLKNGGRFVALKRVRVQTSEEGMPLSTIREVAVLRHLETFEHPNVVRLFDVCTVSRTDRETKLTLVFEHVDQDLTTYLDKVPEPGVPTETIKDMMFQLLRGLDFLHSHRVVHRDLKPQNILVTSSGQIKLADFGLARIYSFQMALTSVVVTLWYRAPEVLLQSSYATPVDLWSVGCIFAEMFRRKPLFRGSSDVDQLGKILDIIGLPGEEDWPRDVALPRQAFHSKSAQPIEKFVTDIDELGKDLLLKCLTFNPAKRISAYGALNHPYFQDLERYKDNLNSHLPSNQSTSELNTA
UniProt P51943: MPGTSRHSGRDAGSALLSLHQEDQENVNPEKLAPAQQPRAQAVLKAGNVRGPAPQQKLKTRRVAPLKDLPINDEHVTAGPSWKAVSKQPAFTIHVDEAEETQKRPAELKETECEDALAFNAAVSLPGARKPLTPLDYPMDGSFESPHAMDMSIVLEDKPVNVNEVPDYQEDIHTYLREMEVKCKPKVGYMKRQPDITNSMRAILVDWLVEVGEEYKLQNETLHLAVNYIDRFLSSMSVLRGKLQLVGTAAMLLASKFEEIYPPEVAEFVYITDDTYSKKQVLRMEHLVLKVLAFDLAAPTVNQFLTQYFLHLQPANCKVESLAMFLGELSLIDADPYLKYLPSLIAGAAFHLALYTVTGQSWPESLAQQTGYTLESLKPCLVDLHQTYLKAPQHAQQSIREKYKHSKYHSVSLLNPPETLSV
UniProt P24860: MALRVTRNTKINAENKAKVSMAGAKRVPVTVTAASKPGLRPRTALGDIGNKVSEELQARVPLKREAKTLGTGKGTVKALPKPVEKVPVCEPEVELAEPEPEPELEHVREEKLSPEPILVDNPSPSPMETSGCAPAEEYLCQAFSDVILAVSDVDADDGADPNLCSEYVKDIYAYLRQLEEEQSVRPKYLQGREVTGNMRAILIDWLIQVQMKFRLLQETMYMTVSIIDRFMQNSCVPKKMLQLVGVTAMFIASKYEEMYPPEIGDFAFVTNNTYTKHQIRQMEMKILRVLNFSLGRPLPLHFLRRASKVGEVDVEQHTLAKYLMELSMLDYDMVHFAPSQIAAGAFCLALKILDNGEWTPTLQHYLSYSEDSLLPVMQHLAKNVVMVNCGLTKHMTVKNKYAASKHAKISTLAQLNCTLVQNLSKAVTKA
UniProt P25322: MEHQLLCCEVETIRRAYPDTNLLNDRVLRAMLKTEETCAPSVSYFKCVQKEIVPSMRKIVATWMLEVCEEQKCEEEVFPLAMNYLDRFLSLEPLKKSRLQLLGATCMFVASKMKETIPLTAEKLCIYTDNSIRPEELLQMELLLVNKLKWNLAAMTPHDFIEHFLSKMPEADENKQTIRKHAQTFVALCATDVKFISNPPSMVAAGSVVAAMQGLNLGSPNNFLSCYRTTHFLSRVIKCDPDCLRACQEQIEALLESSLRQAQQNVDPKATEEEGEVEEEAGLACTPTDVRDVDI
UniProt P11440: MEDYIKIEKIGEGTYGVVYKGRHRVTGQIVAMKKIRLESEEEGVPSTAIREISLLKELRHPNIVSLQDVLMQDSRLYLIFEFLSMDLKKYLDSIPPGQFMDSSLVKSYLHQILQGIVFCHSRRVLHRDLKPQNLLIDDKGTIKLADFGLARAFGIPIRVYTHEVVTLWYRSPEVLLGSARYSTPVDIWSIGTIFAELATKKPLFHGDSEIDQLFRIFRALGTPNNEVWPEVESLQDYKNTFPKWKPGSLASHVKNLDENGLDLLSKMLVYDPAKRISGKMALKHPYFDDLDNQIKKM

T1: GST-Tceal7 (1–98) (mouse) (UniProt A3KGA4)
T1 sequence: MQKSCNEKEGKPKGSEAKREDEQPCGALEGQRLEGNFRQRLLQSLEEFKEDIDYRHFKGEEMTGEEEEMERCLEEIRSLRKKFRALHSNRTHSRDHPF

T2: 3×HA-Tceal7 (mouse) (UniProt A3KGA4)
T2 sequence: T1 sequence

T3: GST-Tceal7-M (34–76) (mouse) (UniProt A3KGA4)
T3 sequence: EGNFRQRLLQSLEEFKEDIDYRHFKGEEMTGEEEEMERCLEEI

T4: GST-Tceal7-N (1–33) (mouse) (UniProt A3KGA4)
T4 sequence: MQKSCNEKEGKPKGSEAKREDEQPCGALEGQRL

T5: GST-Tceal7-C (77–98) (mouse) (UniProt A3KGA4)
T5 sequence: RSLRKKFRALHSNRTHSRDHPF

B1: 6×Myc tagged Cdk4 (protein, UniProt P30285 1-303)
chain: MAATRYEPVAEIGVGAYGTVYKARDPHSGHFVALKSVRVPNGGAAGGGLPVSTVREVALLRRLEAFEHPNVVRLMDVCATSRTDRDIKVTLVFEHIDQDLRTYLDKAPPPGLPVETIKDLMRQFLSGLDFLHANCIVHRDLKPENILVTSNGTVKLADFGLARIYSYQMALTPVVVTLWYRAPEVLLQSTYATPVDMWSVGCIFAEMFRRKPLFCGNSEADQLGKIFDLIGLPPEDDWPREVSLPRGAFAPRGPRPVQSVVPEMEESGAQLLLEMLTFNPHKRISAFRALQHSYLHKEESDAE

How the values were obtained:
[1] = target: T1, GST-Tceal7 (1–98) (mouse); experiment: pull-down; 10 μg GST-Tceal7 or its deletions bound to GST-tag resin beads, incubated with HEK293T cell lysate overexpressing 6×Myc tagged Cyclin or Cdk protein for 2 h at 4 °C; washed thrice with PBS, 10% glycerol, 1% Triton X-100; western blot with anti-Myc antibody; only the target purified
[2] = target: T2, 3×HA-Tceal7 (mouse); experiment: co-IP; HEK293T cells co-transfected with 3×HA-Tceal7 and 6×Myc-Cdk1 for 24 h; lysate incubated with anti-HA antibody or Rat IgG control overnight at 4 °C, protein A/G agarose 2 h; western blot with anti-Myc antibody
[3] = target: T3, GST-Tceal7-M (34–76) (mouse); experiment: pull-down; 10 μg GST-Tceal7 or its deletions bound to GST-tag resin beads, incubated with HEK293T cell lysate overexpressing 6×Myc tagged Cyclin or Cdk protein for 2 h at 4 °C; washed thrice with PBS, 10% glycerol, 1% Triton X-100; western blot with anti-Myc antibody; only the target purified
[4] = target: T4, GST-Tceal7-N (1–33) (mouse); experiment: as above
[5] = target: T5, GST-Tceal7-C (77–98) (mouse); experiment: as above

Molecule | binding [1] | further results
6×Myc tagged Cdk2 (from UniProt P97377-1 1-346) | no binding (tested: 10 μg GST-Tceal7 on beads) | –
6×Myc tagged Cdk6 (from UniProt Q64261 1-326) | no binding (tested: 10 μg GST-Tceal7 on beads) | –
6×Myc tagged Cyclin A2 (from UniProt P51943 1-422) | no binding (tested: 10 μg GST-Tceal7 on beads) | –
6×Myc tagged Cyclin B1 (from UniProt P24860 1-430) | no binding (tested: 10 μg GST-Tceal7 on beads) | –
6×Myc tagged Cyclin D1 (from UniProt P25322 1-295) | no binding (tested: 10 μg GST-Tceal7 on beads) | –
6×Myc-Cdk1 (1–297) (from UniProt P11440 1-297) | binds | binding [2]: binds; binding [3]: binds; binding [4]: no binding (tested: 10 μg GST fusion on beads); binding [5]: binds
6×Myc-Cdk1-C (209–297) (from UniProt P11440 209-297) (domain or fragment) | no binding (tested: 10 μg GST-Tceal7 on beads) | –
6×Myc-Cdk1-M (86–208) (from UniProt P11440 86-208) (domain or fragment) | binds | –
6×Myc-Cdk1-N (1–85) (from UniProt P11440 1-85) (domain or fragment) | no binding (tested: 10 μg GST-Tceal7 on beads) | –
B1 | no binding (tested: 10 μg GST-Tceal7 on beads) | –
